A word on the inhibition: it is the change of the read-out against control, counted positive when it falls.

The text below walks through data of ChEMBL document CHEMBL5606458, “ASAP - ZIKV NS2B-NS3 protease fluorescence single point” (2024).

The whole screen tested about 2,700 compounds, of which about 160 (5.9%) showed an effect of 50% or more. The list shows a part of the results.

The target in this assay is Nonstructural protein 3 (Zika virus) (UniProt A0A024AXB9).
[1] abbreviates: PRVABC59, Concentration 15.0 uM, Number of replicates 1.0.
Where [2] appears, read: PRVABC59, Concentration 10.0 uM, Number of replicates 1.0.
Where [3] appears, read: PRVABC59, Concentration 50.0 uM, Number of replicates 1.0.

Chain of UniProt A0A024AXB9 (A0A024AXB9 as listed by the source): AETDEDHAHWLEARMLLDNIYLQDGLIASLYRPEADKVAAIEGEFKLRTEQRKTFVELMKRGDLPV

Regarding `Cc1nn(CC(=O)Nc2nc(C)c(C)s2)cc1C1CCNCC1`, the inhibition by setting is: (PRVABC59, Concentration 49.5 uM, Number of replicates 2.0, Standard deviation 4.241738323092667 %) -4.55%; (PRVABC59, Concentration 99.01 uM, Number of replicates 2.0, Standard deviation 4.904253485673597 %) -1.92%; (PRVABC59, Concentration 198.0 uM, Number of replicates 2.0, Standard deviation 3.099258305711253 %) 0.621%. Regarding `O=C(N[C@H]1CCn2c(n[nH]c2=O)C1)c1n[nH]cc1[C@H]1CCCNC1`, the inhibition by setting is: (PRVABC59, Concentration 49.5 uM, Number of replicates 2.0, Standard deviation 0.6254746576482224 %) -1.69%; (PRVABC59, Concentration 99.01 uM, Number of replicates 2.0, Standard deviation 1.6431527146733609 %) -3.14%; (PRVABC59, Concentration 198.0 uM, Number of replicates 2.0, Standard deviation 2.922299536029049 %) -3.27%. Turning to `Cc1cc(NC(=O)c2cc(Cl)ccc2NS(=O)(=O)c2ccc(Oc3ccccc3Cl)cc2)c(Cl)cc1F`, under setting [1], the inhibition was 27.9%. As to `Cc1cc(Br)ccc1CNC(=O)C1CCN(c2ccc(C=O)cc2)CC1`, the inhibition under setting [2] is -8.92%. On to `O=C(Cc1ccccc1)N1CCN(C(=O)c2cc(Cl)ccc2NS(=O)(=O)c2ccc(Oc3ccccc3Cl)cc2)CC1`, for which the inhibition under setting [1] is 5.93%. For `O=C(Nc1ccc(Br)nc1)c1cc(Cl)ccc1NS(=O)(=O)c1ccc(Oc2ccccc2Cl)cc1`, the inhibition under setting [1] came out at 35.2%. Same read-out and setting: with `O=C(c1ccco1)N1CCN(C(=O)c2cc(Cl)ccc2NS(=O)(=O)c2ccc(Oc3ccccc3Cl)cc2)CC1` the figure was 2.79%; with `O=C(Nc1cccnc1Br)c1cc(Cl)ccc1NS(=O)(=O)c1ccc(Oc2ccccc2Cl)cc1`, 23%. As for `CN(c1ccc(Cl)cc1C(N)=O)S(=O)(=O)c1ccc(Oc2ccccc2Cl)cc1`, the inhibition came out at 10.5% (PRVABC59, Concentration 49.5 uM, Number of replicates 2.0, Standard deviation 3.2123410819579834 %); 13.3% (PRVABC59, Concentration 99.01 uM, Number of replicates 2.0, Standard deviation 3.01646680666409 %); 13.5% (PRVABC59, Concentration 198.0 uM, Number of replicates 2.0, Standard deviation 0.008705178678834097 %). Regarding `CCn1ncc(-c2ccccc2C(=O)Nc2cnn(C)c2)c1F`, the inhibition was -2.37% (PRVABC59, Concentration 49.5 uM, Number of replicates 2.0, Standard deviation 1.0360539143884941 %); -2.23% (PRVABC59, Concentration 99.01 uM, Number of replicates 2.0, Standard deviation 1.667399290859496 %); 0.357% (PRVABC59, Concentration 198.0 uM, Number of replicates 2.0, Standard deviation 0.23383160062225883 %). As to `CC(C)N(CCN1CCCCCC1)C(=O)C1CCN(c2ccc(C=O)cc2)CC1`, the inhibition under setting [3] turned out to be 19.7%. In the case of `O=C(Nc1nnc(-c2ccncc2)s1)c1cc(Cl)ccc1NS(=O)(=O)c1ccc(Oc2ccccc2Cl)cc1`, under setting [1], the inhibition amounted to 29.5%. For `O=C(c1cc[nH]c(=O)c1)N1CCc2c(-c3nn[nH]n3)cccc21`, the inhibition by setting is: (PRVABC59, Concentration 49.5 uM, Number of replicates 2.0, Standard deviation 0.2323582732388635 %) 2.31%; (PRVABC59, Concentration 99.01 uM, Number of replicates 2.0, Standard deviation 0.7213210587279376 %) 5.35%; (PRVABC59, Concentration 198.0 uM, Number of replicates 2.0, Standard deviation 1.5234622398107893 %) 11.7%. On to `O=C(Nc1cnc2sccn2c1=O)c1cc(Cl)ccc1NS(=O)(=O)c1ccc(Oc2ccccc2Cl)cc1`, for which, under setting [1], the inhibition was found to be 26.4%. `CNC(=O)c1cc(Cl)ccc1NS(=O)(=O)c1ccc(OC2CCCC2)nc1`: the inhibition by setting is: (PRVABC59, Concentration 49.5 uM, Number of replicates 2.0, Standard deviation 3.175342555286392 %) 4.36%; (PRVABC59, Concentration 99.01 uM, Number of replicates 2.0, Standard deviation 1.9630970281522893 %) 7.37%; (PRVABC59, Concentration 198.0 uM, Number of replicates 2.0, Standard deviation 1.686696646918694 %) 11.5%. Consider `O=C(NCc1nnc[nH]1)c1ccn([C@H]2CCCNC2)n1`, for which the inhibition was -1.36% (PRVABC59, Concentration 49.5 uM, Number of replicates 2.0, Standard deviation 1.340215645019518 %); -1.28% (PRVABC59, Concentration 99.01 uM, Number of replicates 2.0, Standard deviation 1.9020439305313104 %); -2.56% (PRVABC59, Concentration 198.0 uM, Number of replicates 2.0, Standard deviation 1.3156996029574284 %). Turning to `C[C@]12CC3CC(NC(=O)c4cc(Cl)ccc4NS(=O)(=O)c4ccc(Oc5ccccc5Cl)cc4)(C1)C[C@](C)(C3)C2`, the inhibition under setting [1] stood at 26.5%.

For `CCOc1ccc(CNC(=O)c2cc(Cl)ccc2NS(=O)(=O)c2ccc(Oc3ccccc3Cl)cc2)cc1`, the inhibition under setting [1] came to 30.8%. As for `COc1ccc(C(=O)C2CCN(C(=O)C3CCN(c4ccc(C=O)cc4)CC3)CC2)cc1`, the inhibition under setting [3] was found to be 18.4%. With `O=Cc1ccc(N2CCC(C(=O)NCc3ccc(-c4ccccn4)cc3)CC2)cc1`, the inhibition under setting [2] is 12.2%. On to `O=Cc1ccc(N2CCC(C(=O)NCC(=O)NCc3ccccc3)CC2)cc1`, for which, under setting [3], the inhibition came out at 22.3%.

On to `CNC(=O)c1ccc(NS(=O)(=O)c2ccc(OC)cc2)cc1`, for which the inhibition (PRVABC59, Concentration 49.5 uM, Number of replicates 2.0, Standard deviation 2.284364246912278 %) was determined as 2.68%; the inhibition (PRVABC59, Concentration 99.01 uM, Number of replicates 2.0, Standard deviation 0.4793170577388709 %) stood at 1.73%; the inhibition (PRVABC59, Concentration 198.0 uM, Number of replicates 2.0, Standard deviation 0.7665269255037523 %) is 2.49%. On to `COCCN(Cc1c(C)nn(C)c1C)C(=O)c1cc(Cl)ccc1NS(=O)(=O)c1ccc(Oc2ccccc2Cl)cc1`, for which the inhibition under setting [1] amounted to 17%.
